Self-cleavage data for 84 variants are collected here from the RNAGym collection of RNA variant scans (doi:10.1093/nar/gkz1192).

B1: CPEB3 Ribozyme (parent)
chain: UAACAGGGGGCCACAGCAGAAGCGUUCACGUCGCAGCCCCUGUCAGAUUCUGGUGAAUCUGCGAAUUCUGCUGUAUAUCUC

Read counts are not given, so values of variants with three or more changes are uncertain.

The variants in this data set derive from B1. Description: self-cleavage, relative activity (ratio to wild type); higher = more cleavage; in vitro, sequencing. The procedure, abridged: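 CPEB3 self-cleaving ribozyme mutant libraries were made by rounds of error-prone PCR, barcoded, and transcribed in vitro with T7 RNA polymerase for 5 hours at 37°C. Cleavage occurred during transcription and a 15 min DNase I step before EDTA stop. RNAs were reverse transcribed with template switching and Illumina-sequenced, with DNA sequencing mapping barcodes to variants. Relative activity is the variant's cleaved/total read fraction divided by wild type's (minimum 5 reads), averaged across three batches.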
On to U1C C44U A64G U66A C68A, for which the self-cleavage came out at 0.05.

As for U1C A18G A65G U69A, the self-cleavage came to 0.2.

As to A2G A5U U26C, the self-cleavage worked out at 0.59.

U1C A18U U41C A64G: the self-cleavage was found to be 0.11.

Regarding A2G A18G U26C U43C U49C U74C U78C, the self-cleavage was 0.

On to A2G A13G U31A C32G G63A, for which the self-cleavage is 0.36.

In the case of U1C A15G A21G C62A U72C, the self-cleavage was 0.36.

U1C G10A A20U A28G A65G: the self-cleavage came to 0.04.

Take U1C G52U U80C: the self-cleavage was 1.14.

In the case of U1G G8U A20G, the self-cleavage was found to be 0.32.

A2G A3C A13G U41A G55U U58C: the self-cleavage was found to be 0.07.

Consider U1C U74A A77U, for which the self-cleavage turned out to be 1.12.

For the variant U1C C17U U41A G46A U67A, the self-cleavage is 0.14.

As for U1C A18G A56G U69A, the self-cleavage is 0.19.

Take A2G A5G U43A A45G: the self-cleavage stood at 0.61.

As to A2G A18G A21G U41A U48C U60G U72C, the self-cleavage came to 0.

Regarding U1C A35G U48A U51A A65G, the self-cleavage was found to be 0.41.

U1C A35G U41A U67C: the self-cleavage worked out at 0.08.

Consider A2C C11G U41A A47G U78A, for which the self-cleavage is 0.05.

Regarding A2G A3U C17G U26C, the self-cleavage stood at 0.05.

Take U1G C17G A20C G36A U60A U69A U72A: the self-cleavage worked out at 0.04.

In the case of U1C A15G A18U U49A U60C U80C, the self-cleavage is 0.06.

Regarding A2G A15U U31C A45G, the self-cleavage is 0.06.

A2C A28G U51A C62G A65G U72C: the self-cleavage amounted to 0.14.

For U1C G7U U25C C39A, the self-cleavage was determined as 0.25.

For the variant U1C C34U U41C U66C, the self-cleavage was 0.12.

In the case of U1C C17G G19U, the self-cleavage was 0.17.

Turning to U1C A35G U43A A56U U60C A64G, the self-cleavage worked out at 0.39.

In the case of U1C A13G C79U, the self-cleavage turned out to be 1.06.

As for U1C G9A U54A U66G U69C U72C, the self-cleavage was 0.04.

In the case of U1C G63A U72C, the self-cleavage stood at 0.94.

Take A2C U25C A28C U80C: the self-cleavage amounted to 0.09.

On to U1C U41G G42A, for which the self-cleavage was 0.18.

As for U1G A28G U49A, the self-cleavage is 0.21.

With U1C G9A U26C U54C U60A, the self-cleavage was 0.05.

As to A2G A13U U49A U66C, the self-cleavage was found to be 0.23.

As for A2C A3G A75U, the self-cleavage was 1.11.

With A2G A3G G10A A18G U25C A57G, the self-cleavage is 0.69.

Consider U1C C11G C27A G33A U67C C68A, for which the self-cleavage turned out to be 0.16.

In the case of A2G A5G A13U U26C, the self-cleavage worked out at 0.62.

As for U1C A35G U51C G52U A75U U80C, the self-cleavage worked out at 1.2.

Turning to U1C A35G U66C, the self-cleavage is 1.03.

Consider U1C A5G C34A U66C U69A, for which the self-cleavage worked out at 0.16.

As to U1G U41A G61A U67C U69C U74C U80C, the self-cleavage is 0.06.

Take U1C A56G U69A A77G: the self-cleavage came to 0.23.

Take U1C A18U A28U A35G U74C: the self-cleavage stood at 0.96.

As to A2G A20G U26A A45G, the self-cleavage stood at 0.42.

In the case of U1C A20G A45G, the self-cleavage came out at 0.53.

For U1C U41A U49C U54C, the self-cleavage is 0.13.

On to U1C A13G U31C A64U, for which the self-cleavage was determined as 0.33.

Turning to U1C A18U A35U U67C U69A, the self-cleavage was determined as 0.07.

Consider U1C A18U U41C U69C U78C, for which the self-cleavage was determined as 0.57.

For A2G A3U A20C U31A A45G U72C, the self-cleavage was determined as 0.08.

Regarding U1C C44A C62A, the self-cleavage came out at 0.22.

For U1C A18G U25C U69A, the self-cleavage stood at 0.03.

Consider U1C A5G C14A A15G C32A U67C, for which the self-cleavage came out at 0.08.

Take U1G U41A A45U: the self-cleavage was determined as 0.02.

Turning to U1G A2G A20U, the self-cleavage was 0.39.

Regarding A2G A5G G7U U31A, the self-cleavage was found to be 0.08.

Consider U1C A28G A45G, for which the self-cleavage was determined as 0.32.

U1C U25A U31G A56G: the self-cleavage was found to be 0.38.

U1C G8U U54G: the self-cleavage came out at 0.25.

For A2G A20G A45U A56U C62U U74A, the self-cleavage came to 0.14.

As for A2C A15U A64U, the self-cleavage worked out at 0.21.

With U1C A28U G42C, the self-cleavage came to 0.26.

Turning to U1C U51A A64G U72A U80C, the self-cleavage stood at 1.26.

U1C A45G U54C U80C: the self-cleavage came out at 0.6.

For the variant A2G A5G C34U, the self-cleavage was found to be 0.37.

In the case of A2G A18U A35G U41C A56G, the self-cleavage turned out to be 0.33.

For the variant U1C A13U U31C U43C U49C U72A U74C, the self-cleavage is 0.05.

With A2G A21G A28G C32A U41C U54C U74C, the self-cleavage came out at 0.

With U1C G9A A13C U31C U66C, the self-cleavage was found to be 0.46.

For U1C U48C U54C G55A A56U, the self-cleavage was determined as 0.17.

Take U1C C14U A64G: the self-cleavage was 0.97.

For the variant A2C A28G A45G U48G, the self-cleavage came out at 0.06.

Turning to A2C A3G C37G, the self-cleavage was determined as 0.96.

As for A2G A20U A56G U66C U76C U80A, the self-cleavage is 0.09.

Turning to A2C A3G G19C A20G U43G U58A A64G, the self-cleavage came to 0.

Consider U1G A20G A35G U67C U76C, for which the self-cleavage amounted to 1.14.

On to A2C G6U A18C A77G, for which the self-cleavage amounted to 0.38.

With A2G A3G G30A U60C, the self-cleavage is 0.37.

U1C A13G U54A G63C: the self-cleavage came out at 0.64.

On to U1G A18U G46A C50U, for which the self-cleavage is 0.1.

As to U1C G30A U51A C62A, the self-cleavage amounted to 0.07.
